The text below walks through data of article PMC11602027.

Results are given in words; binding and its absence hold for the method and conditions named. For part of these data: Binding seen in cells or lysates may run through a third protein. Some binding calls cover weakened binding; strength is not graded here. For part of these data: Where a sequence is shown, tags or fusion partners need not be part of it.

Test [1] addresses T1, GST-Tea4 (S. pombe) (UniProt O60132).
T1 sequence: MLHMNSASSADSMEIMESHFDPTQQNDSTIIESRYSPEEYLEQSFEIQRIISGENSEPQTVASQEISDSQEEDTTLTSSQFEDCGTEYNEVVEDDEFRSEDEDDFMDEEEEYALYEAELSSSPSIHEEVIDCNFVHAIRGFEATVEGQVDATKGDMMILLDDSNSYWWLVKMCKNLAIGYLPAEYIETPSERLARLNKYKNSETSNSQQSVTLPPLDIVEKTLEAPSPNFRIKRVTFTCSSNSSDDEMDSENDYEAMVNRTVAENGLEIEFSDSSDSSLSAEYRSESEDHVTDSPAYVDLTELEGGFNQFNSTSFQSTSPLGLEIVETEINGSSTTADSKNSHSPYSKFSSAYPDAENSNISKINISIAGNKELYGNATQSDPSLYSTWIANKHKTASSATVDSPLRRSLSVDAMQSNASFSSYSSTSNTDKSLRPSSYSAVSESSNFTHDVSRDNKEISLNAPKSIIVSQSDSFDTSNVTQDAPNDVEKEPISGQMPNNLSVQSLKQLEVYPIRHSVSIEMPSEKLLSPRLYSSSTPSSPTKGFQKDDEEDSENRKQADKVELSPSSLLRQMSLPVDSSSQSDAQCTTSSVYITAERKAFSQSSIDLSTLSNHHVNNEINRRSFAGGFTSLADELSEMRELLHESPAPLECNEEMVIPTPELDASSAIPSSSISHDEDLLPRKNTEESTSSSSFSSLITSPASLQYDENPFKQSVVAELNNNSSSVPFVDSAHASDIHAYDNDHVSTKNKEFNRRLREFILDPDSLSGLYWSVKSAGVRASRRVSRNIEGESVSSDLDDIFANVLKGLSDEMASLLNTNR
The experiment in a line: pull-down; 2 to 10 μg GST-tagged protein purified from E. coli and coupled to GS beads, incubated 2 h with S. pombe cell extracts (2 to 3 mg total protein; 50 mM Tris-HCl pH 7.5, 20 mM NaCl, 0.5% NP-40, 10% glycerol); blotted with anti-HA or anti-GFP; GS beads alone as control; only the target purified.

Test [2] addresses T2, pGBK-rgf1 (S. pombe) (UniProt Q9Y7U6).
T2 sequence: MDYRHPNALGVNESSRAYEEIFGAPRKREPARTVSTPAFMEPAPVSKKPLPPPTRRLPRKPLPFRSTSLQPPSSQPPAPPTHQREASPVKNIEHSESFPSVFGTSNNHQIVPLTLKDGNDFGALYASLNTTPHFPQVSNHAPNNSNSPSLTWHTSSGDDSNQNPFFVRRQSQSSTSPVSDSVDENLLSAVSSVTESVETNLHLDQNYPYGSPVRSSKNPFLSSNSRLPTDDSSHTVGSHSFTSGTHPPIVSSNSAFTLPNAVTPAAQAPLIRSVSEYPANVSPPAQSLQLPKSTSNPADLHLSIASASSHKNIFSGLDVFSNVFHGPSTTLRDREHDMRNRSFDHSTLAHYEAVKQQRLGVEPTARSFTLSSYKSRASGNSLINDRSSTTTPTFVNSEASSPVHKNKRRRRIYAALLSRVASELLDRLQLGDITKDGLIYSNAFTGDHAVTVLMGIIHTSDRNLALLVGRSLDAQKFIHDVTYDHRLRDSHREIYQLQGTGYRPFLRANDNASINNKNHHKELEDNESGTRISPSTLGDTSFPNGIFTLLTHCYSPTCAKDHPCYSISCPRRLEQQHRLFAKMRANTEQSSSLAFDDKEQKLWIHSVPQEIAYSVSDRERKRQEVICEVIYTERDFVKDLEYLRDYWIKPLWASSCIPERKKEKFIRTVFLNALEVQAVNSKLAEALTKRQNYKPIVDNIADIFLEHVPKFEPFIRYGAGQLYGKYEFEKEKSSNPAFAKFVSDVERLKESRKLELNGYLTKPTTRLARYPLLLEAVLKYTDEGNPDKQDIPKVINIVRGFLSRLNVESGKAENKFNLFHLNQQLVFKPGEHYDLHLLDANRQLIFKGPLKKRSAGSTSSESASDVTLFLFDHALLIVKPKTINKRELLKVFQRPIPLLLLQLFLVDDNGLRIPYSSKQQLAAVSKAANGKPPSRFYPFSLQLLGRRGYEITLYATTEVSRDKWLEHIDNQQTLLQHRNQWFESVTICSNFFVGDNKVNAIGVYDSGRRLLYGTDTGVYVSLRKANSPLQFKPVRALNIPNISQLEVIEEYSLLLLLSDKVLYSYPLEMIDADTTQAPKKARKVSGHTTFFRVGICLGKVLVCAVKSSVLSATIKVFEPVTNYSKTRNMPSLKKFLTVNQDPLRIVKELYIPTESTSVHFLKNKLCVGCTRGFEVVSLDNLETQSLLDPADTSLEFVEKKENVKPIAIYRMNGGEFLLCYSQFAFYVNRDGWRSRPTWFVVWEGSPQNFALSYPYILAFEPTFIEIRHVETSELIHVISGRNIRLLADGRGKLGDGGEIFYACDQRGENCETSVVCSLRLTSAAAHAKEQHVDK
The experiment in a line: two-hybrid; S. cerevisiae AH109; pGBKT7 (GAL4 binding domain) and pGADT7 (GAL4 activation domain) fusions; growth on YNB plates without histidine.

B1: Rgf1ΔPH-GFP (protein, UniProt Q9Y7U6)
chain: MDYRHPNALGVNESSRAYEEIFGAPRKREPARTVSTPAFMEPAPVSKKPLPPPTRRLPRKPLPFRSTSLQPPSSQPPAPPTHQREASPVKNIEHSESFPSVFGTSNNHQIVPLTLKDGNDFGALYASLNTTPHFPQVSNHAPNNSNSPSLTWHTSSGDDSNQNPFFVRRQSQSSTSPVSDSVDENLLSAVSSVTESVETNLHLDQNYPYGSPVRSSKNPFLSSNSRLPTDDSSHTVGSHSFTSGTHPPIVSSNSAFTLPNAVTPAAQAPLIRSVSEYPANVSPPAQSLQLPKSTSNPADLHLSIASASSHKNIFSGLDVFSNVFHGPSTTLRDREHDMRNRSFDHSTLAHYEAVKQQRLGVEPTARSFTLSSYKSRASGNSLINDRSSTTTPTFVNSEASSPVHKNKRRRRIYAALLSRVASELLDRLQLGDITKDGLIYSNAFTGDHAVTVLMGIIHTSDRNLALLVGRSLDAQKFIHDVTYDHRLRDSHREIYQLQGTGYRPFLRANDNASINNKNHHKELEDNESGTRISPSTLGDTSFPNGIFTLLTHCYSPTCAKDHPCYSISCPRRLEQQHRLFAKMRANTEQSSSLAFDDKEQKLWIHSVPQEIAYSVSDRERKRQEVICEVIYTERDFVKDLEYLRDYWIKPLWASSCIPERKKEKFIRTVFLNALEVQAVNSKLAEALTKRQNYKPIVDNIADIFLEHVPKFEPFIRYGAGQLYGKYEFEKEKSSNPAFAKFVSDVERLKESRKLELNGYLTKPTTRLARYPYDSGRRLLYGTDTGVYVSLRKANSPLQFKPVRALNIPNISQLEVIEEYSLLLLLSDKVLYSYPLEMIDADTTQAPKKARKVSGHTTFFRVGICLGKVLVCAVKSSVLSATIKVFEPVTNYSKTRNMPSLKKFLTVNQDPLRIVKELYIPTESTSVHFLKNKLCVGCTRGFEVVSLDNLETQSLLDPADTSLEFVEKKENVKPIAIYRMNGGEFLLCYSQFAFYVNRDGWRSRPTWFVVWEGSPQNFALSYPYILAFEPTFIEIRHVETSELIHVISGRNIRLLADGRGKLGDGGEIFYACDQRGENCETSVVCSLRLTSAAAHAKEQHVDK
For B1, the binding result in test [1] is on record as “binds”.

B2: Rgf1-GFP (protein, UniProt Q9Y7U6 1-1334)
chain: MDYRHPNALGVNESSRAYEEIFGAPRKREPARTVSTPAFMEPAPVSKKPLPPPTRRLPRKPLPFRSTSLQPPSSQPPAPPTHQREASPVKNIEHSESFPSVFGTSNNHQIVPLTLKDGNDFGALYASLNTTPHFPQVSNHAPNNSNSPSLTWHTSSGDDSNQNPFFVRRQSQSSTSPVSDSVDENLLSAVSSVTESVETNLHLDQNYPYGSPVRSSKNPFLSSNSRLPTDDSSHTVGSHSFTSGTHPPIVSSNSAFTLPNAVTPAAQAPLIRSVSEYPANVSPPAQSLQLPKSTSNPADLHLSIASASSHKNIFSGLDVFSNVFHGPSTTLRDREHDMRNRSFDHSTLAHYEAVKQQRLGVEPTARSFTLSSYKSRASGNSLINDRSSTTTPTFVNSEASSPVHKNKRRRRIYAALLSRVASELLDRLQLGDITKDGLIYSNAFTGDHAVTVLMGIIHTSDRNLALLVGRSLDAQKFIHDVTYDHRLRDSHREIYQLQGTGYRPFLRANDNASINNKNHHKELEDNESGTRISPSTLGDTSFPNGIFTLLTHCYSPTCAKDHPCYSISCPRRLEQQHRLFAKMRANTEQSSSLAFDDKEQKLWIHSVPQEIAYSVSDRERKRQEVICEVIYTERDFVKDLEYLRDYWIKPLWASSCIPERKKEKFIRTVFLNALEVQAVNSKLAEALTKRQNYKPIVDNIADIFLEHVPKFEPFIRYGAGQLYGKYEFEKEKSSNPAFAKFVSDVERLKESRKLELNGYLTKPTTRLARYPLLLEAVLKYTDEGNPDKQDIPKVINIVRGFLSRLNVESGKAENKFNLFHLNQQLVFKPGEHYDLHLLDANRQLIFKGPLKKRSAGSTSSESASDVTLFLFDHALLIVKPKTINKRELLKVFQRPIPLLLLQLFLVDDNGLRIPYSSKQQLAAVSKAANGKPPSRFYPFSLQLLGRRGYEITLYATTEVSRDKWLEHIDNQQTLLQHRNQWFESVTICSNFFVGDNKVNAIGVYDSGRRLLYGTDTGVYVSLRKANSPLQFKPVRALNIPNISQLEVIEEYSLLLLLSDKVLYSYPLEMIDADTTQAPKKARKVSGHTTFFRVGICLGKVLVCAVKSSVLSATIKVFEPVTNYSKTRNMPSLKKFLTVNQDPLRIVKELYIPTESTSVHFLKNKLCVGCTRGFEVVSLDNLETQSLLDPADTSLEFVEKKENVKPIAIYRMNGGEFLLCYSQFAFYVNRDGWRSRPTWFVVWEGSPQNFALSYPYILAFEPTFIEIRHVETSELIHVISGRNIRLLADGRGKLGDGGEIFYACDQRGENCETSVVCSLRLTSAAAHAKEQHVDK
As for B2, the binding entry in test [1] was “binds”.

B3: pGAD-tea4 (protein, UniProt O60132 1-821)
chain: MLHMNSASSADSMEIMESHFDPTQQNDSTIIESRYSPEEYLEQSFEIQRIISGENSEPQTVASQEISDSQEEDTTLTSSQFEDCGTEYNEVVEDDEFRSEDEDDFMDEEEEYALYEAELSSSPSIHEEVIDCNFVHAIRGFEATVEGQVDATKGDMMILLDDSNSYWWLVKMCKNLAIGYLPAEYIETPSERLARLNKYKNSETSNSQQSVTLPPLDIVEKTLEAPSPNFRIKRVTFTCSSNSSDDEMDSENDYEAMVNRTVAENGLEIEFSDSSDSSLSAEYRSESEDHVTDSPAYVDLTELEGGFNQFNSTSFQSTSPLGLEIVETEINGSSTTADSKNSHSPYSKFSSAYPDAENSNISKINISIAGNKELYGNATQSDPSLYSTWIANKHKTASSATVDSPLRRSLSVDAMQSNASFSSYSSTSNTDKSLRPSSYSAVSESSNFTHDVSRDNKEISLNAPKSIIVSQSDSFDTSNVTQDAPNDVEKEPISGQMPNNLSVQSLKQLEVYPIRHSVSIEMPSEKLLSPRLYSSSTPSSPTKGFQKDDEEDSENRKQADKVELSPSSLLRQMSLPVDSSSQSDAQCTTSSVYITAERKAFSQSSIDLSTLSNHHVNNEINRRSFAGGFTSLADELSEMRELLHESPAPLECNEEMVIPTPELDASSAIPSSSISHDEDLLPRKNTEESTSSSSFSSLITSPASLQYDENPFKQSVVAELNNNSSSVPFVDSAHASDIHAYDNDHVSTKNKEFNRRLREFILDPDSLSGLYWSVKSAGVRASRRVSRNIEGESVSSDLDDIFANVLKGLSDEMASLLNTNR
Consider B3, for which, in test [2], the binding result is “binds”.
